The campaign covered roughly 48,000 compounds. About 120 (0.25%) were called active. Roughly 4% stayed inconclusive and do not appear here. Calls come from the whole dose curve; as a rule, active = well fitted activation curve with a large enough effect; inconclusive = small, poorly fitted or top-dose-only effect, or another doubt; inactive = no such curve, though single readings can be large or run the other way. Some of the results follow.
test: Primary qHTS for Identification of Small Molecule Activators of Huntingtin-Antisense Promoter Activity; settings: HEK293 HTT-AS promoter firefly luciferase reporter (activity 0% = vehicle and -100% = no light), 24 h; series mostly up to 57.5 µM; activity change, positive = activation: at the top concentration; note: nearly all actives have a fitted effect of over 55% in size
Outline: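 Firefly luciferase signal from promoter-reporter HEK293 cells was scaled between vehicle (0%) and zero RLU (-100%). Compounds were tested at final concentrations of up to 57.5 uM over 24 h at 37 degrees C. PTC124 at 50 uM final served as control inhibitor.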

Activity change, positive = activation, inactive:
COc1ccc(-c2nnc(SCC(=O)N3CCc4ccccc43)o2)cc1OC -2.79%
Cc1ccc2nc(-c3ccsc3)c(Nc3ccc(Cl)cc3)n2c1 -21.2%
COc1ccccc1Nc1c2c(nc3ccc(NC(=O)c4ccccc4F)cc13)CCCC2 -29.4%
Cc1cccc(-c2noc(-c3ccccc3OCC(=O)Nc3ccccc3[N+](=O)[O-])n2)c1 -7.63%
Cc1ccn2cc(CNC(=O)c3cccc(C(F)(F)F)c3)nc2c1 -17.3%
CC(=O)c1cccc(NC(=O)[C@H]2O[C@@H]3OC(C)(C)O[C@@H]3[C@H]3OC(C)(C)O[C@H]32)c1 -17.4%
COc1ccc(-c2nc3scc(CCNS(=O)(=O)c4ccc(Oc5ccccc5)cc4)n3n2)cc1 -32%
CCOC(=O)c1ccc(NC(=O)C(C)Sc2nc(=O)cc(N)n2CCc2ccccc2)cc1 (stereo not given) -25.3%
COc1ccc(OCC(=O)N(Cc2sccc2C)C2CCS(=O)(=O)C2)cc1 (stereo not given) -11.6%
O=C(NCc1ccccc1Cl)c1c2c(nc3ccccc13)C(=O)N(C1CCCCC1)C2 0.0418%
CCCCC(=O)Nc1ccc(OCc2cc(=O)n3c(C)csc3n2)cc1 2.36%
CCN(CC)c1ccc(C2C(C(=O)Nc3ccccc3C)=C(C)Nc3ncnn32)cc1 (stereo not given) -13%
COC(=O)CCCCCn1c(-c2ccccc2)cn2c3c(=O)n(C)c(=O)n(C)c3nc12 -12.3%
COc1ccc(OC)c(C(=O)CSc2ncc3c(n2)-c2ccccc2N(Cc2ccccc2C)S3(=O)=O)c1 18.7%
Cc1ccn2c(=O)cc(CSc3nnc(C)s3)nc2c1 19.1%
Cc1cc2c(cc1NC(=O)c1ccccc1Cl)n(C)c(=O)c(=O)n2C -7.48%
Cc1cccc(CCn2c(=O)c3ccccc3n(CC(=O)Nc3ccccc3F)c2=O)c1 -22.3%
CCN(Cc1ccccc1)Cc1c(O)ccc2c(=O)c(-c3ccc(Cl)cc3)c(C(F)(F)F)oc12 -5.4%
Cc1ccc(C)c(N2CCN(CCCNC(=O)c3cnn(-c4ccccc4)c3C3CCN(C(=O)OC(C)(C)C)CC3)CC2)c1 -54%
COc1ccc(NS(=O)(=O)c2ccc3[nH]c(=O)ccc3c2)cc1OC -7.43%
CCOc1ccc(S(=O)(=O)Nc2cccc(OC)c2)c2cccnc12 -30.7%
O=C1CS(=O)(=O)C2(C(=O)N(Cc3ccccc3)c3ccccc32)N1c1ccc(F)c(Cl)c1 (stereo not given) -24.1%
COc1ccc(S(=O)(=O)N(CC(=O)Nc2ccccc2Cl)Cc2ccccc2)cc1 -29.2%
Cc1ccc(CCNC(=O)CN2C(=O)COc3ccc(S(=O)(=O)N4CCCCCC4)cc32)cc1 -24.5%
CN1C(=O)c2ccccc2Sc2ccc(NC(=O)NCc3ccc(Cl)cc3)cc21 -58%
COc1ccccc1C(=O)Oc1c(Sc2ccccc2)c(C)nn1-c1ccccc1 -34.6%
CCN(CC)C(=O)Cn1c(=O)n(Cc2ccc(C(=O)NCCCOC)cc2)c(=O)c2ccccc21 -26.3%
O=C(Nc1ccc(F)cc1F)c1cc(S(=O)(=O)N2CCCCC2)c[nH]1 -24.5%
CCn1c2c(c(=O)n3ncc(C(=O)N4CCN(c5ccc(C(C)=O)cc5)CC4)c13)CN(Cc1ccc(OC)cc1)CC2 -47.9%
Cc1ccc(C)c(N2C(=O)N(Cc3cccc(C(F)(F)F)c3)c3ccccc3S2(=O)=O)c1 -27.8%
Cc1ccc(C)c(NC(=O)N2CCN3CCCCC3C2)c1 (stereo not given) -11.7%
COc1ccc(C(=O)CCC(=O)Nc2ccc(F)cc2F)cc1 -9.67%
COc1ccc(F)cc1S(=O)(=O)Nc1ccc2c(c1)CCCN2C(=O)c1cccs1 -13.2%
CCOC(=O)CSc1nc2cc(OC)c(OC)cc2c2nc(-c3ccccc3)nn12 0.854%
COC(=O)c1sccc1S(=O)(=O)N(CC(=O)NCc1ccc(C)cc1)c1ccc(C)c(C)c1 -22.5%
Cc1cc(NC(=O)c2cc(Cl)ccc2Cl)ccc1-c1cc2ccccc2oc1=O -33.7%
CCOC(=O)C1=C(C)N=C2SCCC(=O)N2C1c1ccc(OCc2ccccc2)c(OC)c1 (stereo not given) -17.6%
CC(=O)c1c(C)oc2c1cc(NS(=O)(=O)c1c(C)cc(C)cc1C)c1ccccc12 -4%
NS(=O)(=O)c1ccc(NC(=O)COc2ccc(S(=O)(=O)NC3CCCCC3)cc2)cc1 -5.07%
Cc1nc(-n2nc(C)c(CCC(C)C)c2C)sc1C(=O)Nc1cccc(Cl)c1 -2.26%
Cc1cccc(C)c1NC(=O)c1sc(-n2nc(C)c(Cc3ccc4c(c3)OCO4)c2C)nc1C -14.3%
Clc1ccc(NCc2nc3ccccc3n2CCOc2ccccc2)cc1 0.244%
O=C1C(O)=C(O)C(=O)C(O)=C1O -28%
COc1ccc(Cl)cc1NC(=O)Cn1c(=O)c2ccccc2n2nncc12 -0.66%
CCC(C(=O)Nc1ccc(C)c(Cl)c1)n1c(=O)c(-c2ccccc2NC(C)=O)nc2ccccc21 (stereo not given) -43.9%
COc1cc(CNCCSc2nnnn2C)ccc1OCc1ccc(Cl)cc1Cl -29%
Cc1ccc(NC(=O)Cn2nc3c(cc2=O)CCCC3)cc1Cl -11.5%
Cc1nccn1CC1CCc2c(c3ccccc3n2C)C1=O (stereo not given)
CCN(C(=O)CSc1nc2ccccc2nc1Cc1ccc(F)cc1)c1cccc(C)c1 -22.3%
NC(=O)c1cc[n+](CC2=C(C(=O)[O-])N3C(=O)[C@@H](NC(=O)Cc4cccs4)[C@H]3SC2)cc1 5.43%
COc1ccc(C(=O)Nc2nc3ccccc3n2CCOc2ccc(Cl)cc2)cc1 1.97%
CCOc1ccc(N(CC)C(=O)CCc2nc(-c3ccccc3F)no2)cc1 -9.66%
COc1cccc(NC(=O)Cn2nc(C)c3c(C)n(-c4ccccc4)nc3c2=O)c1 -18.1%
CCC(Sc1nnc(-c2ccc(OC)c(OC)c2)c(-c2ccc(OC)c(OC)c2)n1)C(=O)NC1CCCC1 (stereo not given) -7.86%
Cc1cccn2c(=O)cc(CSc3nnc(NC(=O)c4ccc(F)cc4)s3)nc12 2.56%
O=C(NCCc1ccccc1)c1ccc(Cn2c(SCc3ccccc3)nc3cccnc32)cc1 17.1%
CCCOc1ccc(Oc2nc(NCC(C)C)nc(N(C)C)n2)nn1 -28.6%
CCc1ccc(NC(=O)C(Cc2ccccc2)NS(=O)(=O)c2ccc3c(c2)c(=O)n(C)c(=O)n3C)cc1 (stereo not given) -16.1%
CC(=O)NC[C@H]1CN(c2ccc(N3CCOCC3)c(F)c2)C(=O)O1 -1.96%
CCOc1ccc(C(=O)Nc2ccc(-n3nncc3-c3ccc(OC)cc3)cc2)cc1 -16.2%

Reference: PubChem BioAssay AID1508624 (National Center for Advancing Translational Sciences (NCATS), 2021)
